Results as given in patent US20090136523A1.

Columns and labels:
Assay in all cases: peptide microarray
[1] = target: peptide 93 (human)
[2] = target: peptide 95 (human)
[3] = target: peptide 127 (human)
[4] = target: peptide 43 (human)
[5] = target: peptide 122 (human)
[6] = target: peptide 107 (human)
[7] = target: peptide 72 (human)
[8] = target: peptide 5 (human)
[9] = target: peptide 88 (human)
[10] = target: peptide 110 (human)
[11] = target: peptide 116 (human)
[12] = target: peptide 25 (human)
[13] = target: peptide 97 (human)
[14] = target: peptide 123 (human)
[15] = target: peptide 100 (human)
[16] = target: peptide 89 (human)
[17] = target: peptide 58 (human)
[18] = target: peptide 6 (human)
[19] = target: peptide 64 (human)
[20] = target: peptide 51 (human)
[21] = target: peptide 84 (human)
[22] = target: peptide 38 (human)
[23] = target: peptide 81 (human)
[24] = target: peptide 124 (human)
[25] = target: peptide 119 (human)
[26] = target: peptide 68 (human)
[27] = target: peptide 65 (human)
[28] = target: peptide 26 (human)
[29] = target: peptide 78 (human)
[30] = target: peptide 22 (human)
[31] = target: peptide 133 (human)
[32] = target: peptide 92 (human)
[33] = target: peptide 46 (human)
[34] = target: peptide 126 (human)
[35] = target: peptide 117 (human)
[36] = target: peptide 2 (human)
[37] = target: peptide 129 (human)
[38] = target: peptide 67 (human)
[39] = target: peptide 44 (human)
[40] = target: peptide 90 (human)
[41] = target: peptide 52 (human)
[42] = target: peptide 28 (human)
[43] = target: peptide 3 (human)
[44] = target: peptide 74 (human)
[45] = target: peptide 76 (human)
[46] = target: peptide 34 (human)
[47] = target: peptide 73 (human)
[48] = target: peptide 80 (human)
[49] = target: peptide 109 (human)
[50] = target: peptide 130 (human)
[51] = target: peptide 102 (human)
[52] = target: peptide 112 (human)
[53] = target: peptide 61 (human)
[54] = target: peptide 104 (human)
[55] = target: peptide 8 (human)
[56] = target: peptide 33 (human)
[57] = target: peptide 11 (human)
[58] = target: peptide 21 (human)
[59] = target: peptide 1 (human)
[60] = target: peptide 111 (human)
[61] = target: peptide 106 (human)
[62] = target: peptide 96 (human)

- Mean Signal Value [1]: 0.269
- Mean Signal Value [2]: 6.14
- Mean Signal Value [3]: 0.00962
- Mean Signal Value [4]: 0
- Mean Signal Value [5]: 0.308
- Mean Signal Value [6]: 10.6
- Mean Signal Value [7]: 10.1
- Mean Signal Value [8]: 43.1
- Mean Signal Value [9]: 0
- Mean Signal Value [10]: 0.024
- Mean Signal Value [11]: 0.0385
- Mean Signal Value [12]: 0
- Mean Signal Value [13]: 0.0144
- Mean Signal Value [14]: 0.438
- Mean Signal Value [15]: 0.00962
- Mean Signal Value [16]: 0
- Mean Signal Value [17]: 33.8
- Mean Signal Value [18]: 97.5
- Mean Signal Value [19]: 0.438
- Mean Signal Value [20]: 0.856
- Mean Signal Value [21]: 17.2
- Mean Signal Value [22]: 4.77
- Mean Signal Value [23]: 35.4
- Mean Signal Value [24]: 12.7
- Mean Signal Value [25]: 0.024
- Mean Signal Value [26]: 0
- Mean Signal Value [27]: 40.8
- Mean Signal Value [28]: 0.0337
- Mean Signal Value [29]: 7.86
- Mean Signal Value [30]: 0.0192
- Mean Signal Value [31]: 6.51
- Mean Signal Value [32]: 11.9
- Mean Signal Value [33]: 0
- Mean Signal Value [34]: 0.0337
- Mean Signal Value [35]: 0.00962
- Mean Signal Value [36]: 16.5
- Mean Signal Value [37]: 23.3
- Mean Signal Value [38]: 0.00962
- Mean Signal Value [39]: 0
- Mean Signal Value [40]: 0
- Mean Signal Value [41]: 0.12
- Mean Signal Value [42]: 0.221
- Mean Signal Value [43]: 0.726
- Mean Signal Value [44]: 0
- Mean Signal Value [45]: 0.0337
- Mean Signal Value [46]: 15.7
- Mean Signal Value [47]: 33.6
- Mean Signal Value [48]: 17.7
- Mean Signal Value [49]: 0
- Mean Signal Value [50]: 4.3
- Mean Signal Value [51]: 0.0192
- Mean Signal Value [52]: 0
- Mean Signal Value [53]: 0.0385
- Mean Signal Value [54]: 0.00481
- Mean Signal Value [55]: 0.736
- Mean Signal Value [56]: 21.8
- Mean Signal Value [57]: 5.78
- Mean Signal Value [58]: 0.197
- Mean Signal Value [59]: 3.5
- Mean Signal Value [60]: 0
- Mean Signal Value [61]: 0.245
- Mean Signal Value [62]: 0.0144
B1: rhuMAb 411 (antibody, human IgG1, kappa)
heavy: EVQLVESGAGVKQPGGTLRLTCTASGFSLTTYGVHWVRQAPGKGLEWVGVIWGDGRTDYDAAFMSRVTISKDTSKSTVYLQMNSLRAEDTAVYYCMRNRHDWFDYWGQGTTVTVSS[letters of human IgG1 constant region left out]
light: DILLTQSPSSLSATPGERATITCRASQGIRNNLNWYQQKPGQAPRLLIYYSSNLQSGVPSRFSGSGSGTDFTLTISRLQPEDVAAYYCQQSIKLPFTFGSGTKVEIKRTVAAPSVFIFPPSDEQLKSGTASVVCLLNNFYPREAKVQWKVDNALQSGNSQESVTEQDSKDSTYSLSSTLTLSKADYEKHKVYACEVTHQGLSSPVTKSFNRGEC
